Screen size: about 340,000 compounds; about 530 (0.16%) were called active. Inconclusive results, whose numbers are uncertain, are shown with a selection of clear calls. Cut-off read from the data, not from the text of the source: active = activity change below about -80%; inconclusive = between about -30% and that limit; inactive = weaker than that.
Assay: Small Molecules that selectively kill Giardia lamblia: qHTS;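 note: parasites exposed to compound for two days anaerobically before the ATP read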
Conditions: Giardia lamblia trophozoite viability; at 7.66 µM; active compounds read low
In short: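 Luminescent ATP signal served as the viability read-out, measured 15-30 min after adding ATP detection reagent to trophozoites that had been incubated with compounds for 48 hrs at 37 deg C anaerobically at 100 cells/well.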
% is set by controls: 0 for no effect and ±100 for the full control effect.

Row | Structure (SMILES) | activity change
1 | O=C(Nc1ncc([N+](=O)[O-])s1)C1COc2ccccc2O1 (centres undefined) | active: -95.9%
2 | COc1cc(OC)cc(-c2cc3ccc(OC)cc3cn2)c1 | inconclusive: -44.2% [inhibitor]
3 | COc1ccc(S(=O)(=O)Nc2cccc3c2O[C@H](CN(C)Cc2ccc(Oc4ccccc4)cc2)[C@@H](C)CN([C@H](C)CO)C3=O)cc1 | inconclusive: -30.5% [inhibitor]
4 | CCC(=O)c1ccc(N2CCN(C(=O)COc3ccc(F)cc3)CC2)c(F)c1 | inactive: -8.67%
5 | COC(=O)Cc1ccc(NC(=O)c2ccc(C(C)(C)C)cc2)cc1 | inconclusive: -55.7% [inhibitor]
6 | CCOC(=O)c1cnc(-n2nc(C)cc2C)nc1N(C)C | inconclusive: -34.5% [inhibitor]
7 | Cc1nc2ccc(S(=O)(=O)NC(CC(C)C)C(=O)O)cc2s1 (centres undefined) | inconclusive: -30.3% [inhibitor]
8 | Cc1cc(/C=C2\SC(=S)NC2=O)c(C)n1-c1cccc(O)c1 | inconclusive: -30.2% [inhibitor]
9 | O=C(OCCCOC(=O)c1ccc([N+](=O)[O-])o1)c1ccc([N+](=O)[O-])o1 | inconclusive: -70.2% [inhibitor]
10 | CCNc1ccc(C2(O)C(=O)c3ccccc3C2=O)cc1 | inactive: 4.52%
11 | COc1ccc(Nc2c3c(nc4ccccc24)CCC3)cc1 | inactive: 33.1%
12 | COc1ccc(S(=O)(=O)Nc2ccccc2C(=O)N2CCOCC2)cc1Br | inconclusive: -37.6% [inhibitor]
13 | COc1ccc(CCN2C(=O)N[C@@H](C(C)C)C2=O)cc1 | inconclusive: -39.4% [inhibitor]
14 | COc1cc(/C=N/NC(=O)Cc2cccs2)c([N+](=O)[O-])cc1OC | inactive: 6.48%
15 | Brc1ccc(-c2csc(N3CCOCC3)n2)cc1 | inactive: 8.03%
16 | CCN(CC)CCn1c(NCc2cc(OC)ccc2OC)nc2ccccc21 | inactive: 18.3%
17 | CCN1CCN(/C=N/c2nc(C)cs2)CC1 | inactive: 3.12%
18 | O=C(/C=C\Nc1ccccc1Br)c1ccc2c(c1)OCO2 | inconclusive: -64.9% [inhibitor]
19 | CC1=C(C(=O)Nc2ccccc2F)C(c2ccsc2)C2=C(CC(C)(C)CC2=O)N1 (centres undefined) | inconclusive: -31.8% [inhibitor]
20 | CCN(CC)S(=O)(=O)c1ccc(C(=O)NCC(=O)N/N=C/c2ccccc2OC)cc1 | inconclusive: -38.4% [inhibitor]
21 | Cc1cc(C)nc(Nc2nc(=O)c3ccccc3s2)n1 | inconclusive: -31% [inhibitor]
22 | O=C(O)C(O)Cc1c[nH]c2ccccc12 (centres undefined) | inconclusive: -30.3% [inhibitor]
23 | CCCC12CN3CCN(CC(C3)/C1=N\NC(=O)c1ccccc1Cl)C2 | inconclusive: -30.1% [inhibitor]
24 | CN(C)c1ccc(-c2ccc([C@H]3[C@@H]4C=CCC[C@@]4(C)C(=O)N3Cc3ccccc3)c(F)c2)cc1 | inconclusive: -31.4% [inhibitor]
25 | O=[N+]([O-])c1cnc(Sc2ccncn2)s1 | inactive: 17%
26 | Cc1[nH]c2ccccc2c1C(=O)CCl | inactive: -22.8%
27 | Cc1nn(Cc2cccc(C(=O)O)c2)c(C)c1[N+](=O)[O-] | inactive: 9.3%

Row | Structure (SMILES) | activity change
28 | CCCCC[C@H](O)/C=C/[C@@H]1[C@@H](C/C=C\CCCC(=O)O)[C@H]2CO[C@@H]1C2 | inconclusive: -30.1% [inhibitor]
29 | CC(=O)N(CN1C(=O)CCC1=O)c1ccc(Cl)c(Cl)c1 | inconclusive: -30.8% [inhibitor]
30 | C=CCn1c(C)cc(C(=O)Cn2nc(C(=O)O)c3ccccc3c2=O)c1C | inconclusive: -38.3% [inhibitor]
31 | O=C(NCc1ccccc1)C1CCCN(c2ncnc3c2nc2n3CCCCC2)C1 (centres undefined) | inconclusive: -40.4% [inhibitor]
32 | CC1(C)Oc2cc3oc(-c4cc(O)cc(O)c4)cc3cc2CC1O (centres undefined) | inconclusive: -53.7% [inhibitor]
33 | CCc1ccc(C(=O)Nn2cnc3ccccc3c2=O)cc1 | inconclusive: -31.6% [inhibitor]
34 | O=c1oc2ccccc2cc1-c1cn2cccnc2n1 | inconclusive: -35.6% [inhibitor]
35 | O=C(COC(=O)c1cccc(Cl)c1)Nc1cccc(S(=O)(=O)NC2=NCCC2)c1 | inconclusive: -36.1% [inhibitor]
36 | O=C(NCc1ccccn1)C1CC(c2ccccc2O)=NO1 (centres undefined) | inconclusive: -40% [inhibitor]
37 | O=C(CN1C(=O)S/C(=C\c2ccccc2F)C1=O)NC1C=CS(=O)(=O)C1 (centres undefined) | inconclusive: -39.4% [inhibitor]
38 | CCN(CC)C(=O)c1[nH]cnc1C(=O)Nc1cccc(C)c1 | inconclusive: -35.6% [inhibitor]
39 | CSCCC(NC(=O)c1ccco1)C(=O)OCC(=O)N(Cc1ccccc1)C(C)(C)C (centres undefined) | inconclusive: -31.5% [inhibitor]
40 | Cc1ccc(Cn2c(SCC(=O)N3CC(=O)Nc4ccccc43)nc3ccccc3c2=O)cc1 | inactive: 13.6%
41 | O=C(C1=C[C@H](c2ccc3c(c2)OCO3)C[C@H](OCCCCO)O1)N1CCOCC1 | inconclusive: -31.5% [inhibitor]
42 | Cc1nc(-c2coc3cc(OCC(=O)O)ccc3c2=O)cs1 | inconclusive: -57.3% [inhibitor]
43 | CC(=O)c1ccc(NC(=O)COC(=O)c2c3c(nc4ccccc24)/C(=C\c2cccs2)CCC3)cc1 | inconclusive: -30.9% [inhibitor]
44 | O=C(/C=C/c1ccco1)N1CCN(S(=O)(=O)/C=C/c2ccccc2)CC1 | inactive: -3.99%
45 | CCOc1ccc(C(=O)NCCc2ccccc2)cc1 | inconclusive: -37.8% [inhibitor]
46 | CCCOc1ccc(NC(=O)OC2CCN(C)CC2)cc1 | inconclusive: -31.1% [inhibitor]
47 | Cc1ccc(S(=O)(=O)NCCn2nc(C)cc2C)cc1 | inconclusive: -37.8% [inhibitor]
48 | COc1cc2c(cc1OC)CN(C(=O)c1ccc(N3CCCC3)c([N+](=O)[O-])c1)CC2 | inactive: -13.9%
49 | COc1ccc(Cl)cc1NC(=O)CN(C)C(=O)c1cn2ccccc2n1 | inactive: -19.9%
50 | COc1ccccc1NC(=O)c1ccc(-c2nn(C)c(=O)c3ccccc23)cc1 | inconclusive: -37.5% [inhibitor]
51 | O=C1C2=C(C(c3ccccc3)=NCCN2)C(c2cccc([N+](=O)[O-])c2)N1c1ccccc1 (centres undefined) | inactive: 2.33%
52 | O=[N+]([O-])c1ccc(N2CCCCC2)cc1SCCO | inactive: -6.42%
53 | Cc1ccc([C@H]2C(C(=O)O)=CC[C@@H](c3cccc(Cl)c3)N2S(=O)(=O)c2ccc(C)cc2)cc1 | inconclusive: -47% [inhibitor]
54 | CC(C)(C)c1ccc(Cc2n[nH]c(=S)[nH]c2=O)cc1 | inconclusive: -33.1% [inhibitor]

Row | Structure (SMILES) | activity change
55 | CC1(C)OC(=O)N(NCc2ccccc2)C1(C)O (centres undefined) | inactive: -16.4%
56 | CN(C)S(=O)(=O)c1ccc(-c2cn3ccccc3n2)cc1 | inconclusive: -38.4% [inhibitor]
57 | CC1=NN(C(N)=S)C(=O)C1N=Nc1c(Br)cc(Br)cc1Br (centres undefined) | inconclusive: -31% [inhibitor]
58 | Clc1ccc2c(N/N=C/c3ccccc3Br)ccnc2c1 | inconclusive: -79.5% [inhibitor]
59 | CSCCC(=O)Nc1nc(-c2ccccn2)cs1 | inactive: -18.5%
60 | Cc1ccc(S(=O)(=O)N2CCC(=O)N(CCOCc3cccc(C(F)(F)F)c3)CC2)cc1 | inconclusive: -38.6% [inhibitor]
61 | O=C(N1CCN(c2ccccn2)CC1)C(Cl)(Cl)Cl | inconclusive: -33% [inhibitor]
62 | CC(=O)O[C@@H]1[C@@H](O)CN[C@@H]1Cc1ccccc1 | active: -82.5%
63 | CCOC(=O)C1=C(COC(=O)c2ccc([N+](=O)[O-])s2)NC(=O)NC1C (centres undefined) | inconclusive: -46.4% [inhibitor]
64 | O=[N+]([O-])c1ccc(Cl)cc1Sc1ccccn1 | inactive: -6.65%
65 | Cc1cc(C)c(C#N)c(SCc2ccc(C(=O)O)cc2)n1 | inactive: 12.5%
66 | CC(C)CC[n+]1ccn(-c2nc3ccccc3nc2[N-]S(=O)(=O)c2ccc(Cl)cc2)c1 | inactive: -0.0311%
67 | COc1ccc(C(C(=O)NC2CCCC2)N(Cc2ccco2)C(=O)c2snc(C(N)=O)c2N)cc1OC (centres undefined) | inactive: -5.18%
68 | COc1ccc(-c2cc(C(=O)N3CCN(c4ccccc4)CC3)c3ccccc3n2)cc1OC | inconclusive: -33.7% [inhibitor]
69 | CCCCN(C)C(=O)C1CCN(C/C(C)=C/c2ccccc2)CC1 | inactive: 4.92%
70 | O=C(Nc1ccc(Cl)cc1)Nc1nnc(CSCc2ccccc2)s1 | inactive: 14.2%
71 | CCc1ccc(NC(=S)Nc2cccc3cnccc23)cc1 | inactive: 6.07%
72 | Cn1nc(C(F)(F)F)c(/C=N/OC(=O)c2ccccc2Cl)c1SCc1ccccc1Cl | inactive: 3.01%
73 | O=C(c1cc2ccccc2o1)N1CCN(S(=O)(=O)c2c(F)cccc2F)CC1 | inconclusive: -36% [inhibitor]
74 | C=C1CSc2nc(=O)c3c4c(sc3n21)CCC4 | inactive: -6.01%
75 | Cn1c(=O)c(=O)n(C)c2cc(S(=O)(=O)CCC(=O)Nc3ccc(F)cc3)ccc21 | inconclusive: -35.3% [inhibitor]
76 | COc1ccc(C(=O)Nc2cc(=O)n(C)c(=O)n2C)cc1OC | inconclusive: -31.5% [inhibitor]
77 | O=C(Nc1ccccc1)Nc1ccc(C(=O)N2CCCC2)cc1 | inconclusive: -50% [inhibitor]
78 | Cc1cc(NC(=O)CSc2nnc(C3CC3)n2N)c([N+](=O)[O-])cc1C | inconclusive: -32.1% [inhibitor]
79 | COc1ccc(S(=O)(=O)N2CCc3ccccc32)cc1C(=O)N1CCOCC1 | inconclusive: -32.3% [inhibitor]
